Data as given in the supplement of paper PMC11417369.
± gives the standard deviation of the averaged measurements. This is one part of the list.

These sequences were tested on PfAP2-EXP AP2 domain (GST-tagged) (assay: gcPBM binding intensity (ln(normalized median fluorescence intensity)); higher = stronger DNA binding).
In short: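 An Agilent 4 × 180k array carrying primer-extended double-stranded 36-bp intergenic genomic probes and negative controls received GST-tagged P. falciparum DNA-binding domains expressed in E. coli, about 25 μg on average, for 1 h. The binding buffer contained 1× PBS, 1% milk, 0.2 mg/ml BSA, 0.5% salmon testes DNA and 0.03% Triton X-100. Binding intensity is the top Masliner-normalised natural-log median intensity across replicate spots of either probe orientation, read after Alexa488 anti-GST antibody staining and a 488 nm scan.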

Row | Sequence | gcPBM binding intensity (ln)
1 | TATGTATATATTTGTGCACACCAAAGTTTGATTTTA [CACACA_site1861] | 9.2 ± 0.13
2 | TTATAATAAACCTATACACACATAAATAAATAAATA [CACACA_site2581] | 8.61 ± 0.45
3 | TCAAGAATTATATAAACACACATACATACACCCATA [CACACA_site5126] | 8.85 ± 0.55
4 | ATATTGATGTATTGTTTTTTTTTTTTCTTTTTTTTT [CACACA_negctrl_site1238] | 8.32 ± 0.64
5 | GAATTCAACAAAAAAAGTACTCTACATAAAATAATG [XGTACX_site175] | 8.46 ± 0.39
6 | CCATGCATACATTCTTGTACACATTTCTATTATGAG [XGTACX_site39] | 8.89 ± 0.41
7 | TACTCACAATGGGGTCTACAAAAAAAAAAAAATAAA [XGTACX_negctrl_site229] | 8.31 ± 0.5
8 | GAACGAAACTTTCTTACACACATTGAAATTTTTTTC [CACACA_site1779] | 8.86 ± 0.51
9 | TTATAAAAGGACTTCTGTACGAATTTTTTTTAATAA [XGTACX_site1411] | 8.03 ± 0.11
10 | TATGCAAGGAACCACACACACACACCGAAATGTATA [CACACA_site4573] | 8.57 ± 0.6
11 | AATAAATAAATATATATATATATATAATATCATAAA [CACACA_negctrl_site337] | 8.6 ± 0.057
12 | TTTTTTATTAGTATCTGTACACATTGGTATTTGTAT [XGTACX_site6682] | 8.82 ± 0.33
13 | TTCTTTAAAATATTATGTACACATTGCGAACAGTTT [XGTACX_site5418] | 8.97 ± 0.3
14 | TATATATATATATATTGTACTTATGTTTATATTCAT [XGTACX_site6258] | 10.1 ± 0.2
15 | ATATATATTTATGTATCACACACAAAAAAAAAAAAT [CACACA_site7973] | 8.4 ± 0.54
16 | AGTTTATTTATATACACACACATATAAATATTATAG [CACACA_site6522] | 8.55 ± 0.59
17 | ATATAGACACACACATGTACATATGCCAACGTGATA [XGTACX_site3828] | 8.62 ± 0.41
18 | ATAAACTGAGTGGTTACACACAAAACCAATAACTTT [CACACA_site7601] | 8.54 ± 0.46
19 | ACTATATAATATAATATATTATAATATATTATATTA [GTGCAC_negctrl_site140] | 8.21 ± 0.32

Row | Sequence | gcPBM binding intensity (ln)
20 | TTCTTAAAATATGAAAGTACATAGGCATTATATATT [XGTACX_site8400] | 8.4 ± 0.32
21 | TTATAATATTCATAAGGTACAGTTTATATATGTTAT [XGTACX_site8442] | 8.47 ± 0.4
22 | TTGAGTTGTATAAAAAGTACAAGGTTTTAACTAAAT [XGTACX_site1447] | 8.55 ± 0.37
23 | AATAATCATGATCAAAGTACGTATGATTAAAAAAAA [XGTACX_site4916] | 8.62 ± 0.48
24 | TATGACCTTAGTAATTGTACACAAACATATTAATAT [XGTACX_site3340] | 8.59 ± 0.45
25 | GAGTATATGATATATATATATATATAAAAAAAAAAA [GTGCAC_negctrl_site99] | 8.62 ± 0.47
26 | TATATGTAAATGGACACACACATATATATATATATA [CACACA_site3659] | 10.1 ± 0.36
27 | CGTATATCACCAACTAGTACATATAAATAAATAAAT [XGTACX_site8837] | 8.79 ± 0.39
28 | TGGTATATTATTTTTTGTACACATAAATGAAACATT [XGTACX_site5345] | 8.62 ± 0.27
29 | ATATAGATTCGACACACACACAAAAAAAAAAAAAAA [CACACA_site7677] | 8.28 ± 0.59
30 | GTACCTATTTCATACACACACACACGCAAACAAACA [CACACA_site6590] | 9.01 ± 0.34
31 | ATATATATAATAAACACACACATATACATAGATGTA [CACACA_site5841] | 8.54 ± 0.29
32 | ATATATATATATATATGTACATATTATTATTTTGAT [XGTACX_site4752] | 10.1 ± 0.38
33 | GTATATGTACTATACGCACACACACCCACATATATA [CACACA_site9062] | 8.86 ± 0.39
34 | ATATATATTATATGCACACTAATAAGACTATTTAAA [CACACA_site3554] | 8.51 ± 0.099
35 | TTATAACTTTTGAGCACACACAAGCATATAAATATA [CACACA_site6933] | 8.44 ± 0.39
36 | TTGTACATCTTTTGCACACGTAATGTTATTATAATA [CACACA_site1258] | 8.955 ± 0.064
37 | AAATACTGTAAAAAAGCATGCCACTAATAATAATTA [TGCATGCA_site759] | 8.93 ± 0.71
38 | TCATTTTTTTGTTTGGTGCGACTTGAAAATTTGATT | 8.78 ± 0.28

Row | Sequence | gcPBM binding intensity (ln)
39 | TGTGTGTGTATATGTGTGCACATATAAAATAGAAGA [GTGCAC_site9714] | 9.12 ± 0.29
40 | ATATGTGTTATTTATACATGCAGAAGAATATCTATT [TGCATGCA_site828] | 9.06 ± 0.35
41 | ACATATATATAATATATATATCATCATATTTTCTTA [CACACA_negctrl_site853] | 8.27 ± 0.39
42 | ACCTTTGTAGTTGGTCCACACACATATATGGAAGAA [CACACA_site8351] | 8.9 ± 0.32
43 | CATACATTTAAAAAGTGTACGTATATGAAAAAAGGA [XGTACX_site6512] | 8.88 ± 0.34
44 | CTCAATATTATTACTACACACAAATTAAAATTTTCC [CACACA_site4203] | 8.52 ± 0.35
45 | AGAGAATAAATATAAAGTACATATATAAATATATAT [XGTACX_site5055] | 8.29 ± 0.26
46 | GTATATAAAAATTCATGTACATATTATTATTTTTAA [XGTACX_site658] | 8.52 ± 0.3
47 | ACATATACAAAACACACACACAACGTTTTAATAAAT [CACACA_site1979] | 8.72 ± 0.69
48 | ATGTTATAAATCTTAATATATATATGCAAAAGAGAA [XGTACX_negctrl_site521] | 8.81 ± 0.42
49 | GATCCATTATTGATCCGTACTTATTCATGTTATATA [XGTACX_site5946] | 8.84 ± 0.36
50 | TATATATGTATATATACACACAACGGTTATAAATAT [CACACA_site1128] | 8.7 ± 0.44
51 | TATATATATATATGTATGCACTTTAATTTTATAAGG | 10.1 ± 0.4
52 | TGTTATAAGATTTATGTACACACATATACACCCCTC [CACACA_site8141] | 9.14 ± 0.34
53 | AATATAAATAAAAACACACACACACCGATATATATA [CACACA_site5283] | 8.86 ± 0.4
54 | AAGATTAGGTTAATTAGTACTTATTATATTGTAATG [XGTACX_site3653] | 8.28 ± 0.51
55 | AACATTGATAAATATAAACACACGAAAACAGACATA [CACACA_site490] | 9.02 ± 0.57
56 | GAAACAATTTGATATTGTACATAAATAAATAAAAAC [XGTACX_site8869] | 8.9 ± 0.33
57 | CATATTATTATTTTGGTGCATACTTATATATATTTT | 8.75 ± 0.31
